We go through seven molecules from publication PMC2704394 (2009).

Chains of the proteins cited; added tags and fusions are not shown.
UniProt Q09196: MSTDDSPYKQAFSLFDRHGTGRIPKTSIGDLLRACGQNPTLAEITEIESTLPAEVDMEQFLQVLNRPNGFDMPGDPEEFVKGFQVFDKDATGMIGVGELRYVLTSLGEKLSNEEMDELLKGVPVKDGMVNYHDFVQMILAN

Substitutions are numbered along the chain they refer to. Names and notes keep the numbering of the source. Results are given in words; binding and its absence hold for the method and conditions named. Some binding calls cover weakened binding; strength is not graded here. For some of these results: Tags and fused reporters may be left off the sequences shown.

The target in assay [1] is S. pombe Cdc4 fused to the GAL4 DNA binding domain (S. pombe) (UniProt Q09196). Put plainly: two-hybrid; Cdc4 fused to GAL4-DB (pBI880) as bait, Pik1 507-851 fused to GAL4-TA (pBI771) as prey, S. cerevisiae YPB2; colony formation at 30°C for 7-9 days on SD -leucine -tryptophan -histidine +3-AT; X-gal colony filter assay.
For assay [2], the target named is purified Cdc4 protein (S. pombe) (UniProt Q09196). The experiment in a line: ELISA; wells coated with purified Cdc4 at 10 µg/ml; two-fold dilutions of S. pombe cell lysates (56 µg to 14 µg protein) in PBS, 16 h at 4°C; detected with rabbit anti-Pik1 serum and anti-rabbit IgG-HRP; only the target purified. Background: In an ELISA, binding on a coated surface is turned into a signal by an enzyme label.

B1: S. pombe Pik1 C-terminal region (residues 507-851), wild type, fused to the GAL4 transcription activation domain (domain or fragment, UniProt Q10366 507-851)
chain: LEEERLNEPSIYPVSVDISCAEDLRFGKETQKAERKGDRDDPSAATFQEDWYAKKERIRKSSPYGHYPNWDLVSVIVKTGADLRQETFACQLIYAFQRVWLECKEKVWVRRMKILVTGDNSGLIETITNAISVHSIKKNLTKQLREAELAQGKIAGKNVVTLKDYFIKQFGDPNSSRYRQAQTNFLQSLVAYSIISYLLQLKDRHNGNVLIDSEGHIIHIDFGFLLTNTPGNVGFESAPFKLTADYLEILDDRFDEYRSLMKAAFKSVRKNADQIILLVEVMQNNSTMPCFRAGENTSAQLLQRFQLQLGDKECDDFVDLLIQKANCSVWTRLYDLFQNITNGIY
B1: in assay [1], the binding entry is on record as “binds”.

B2: S. pombe Pik1 C-terminal region (residues 507-851) R838A fused to the GAL4 transcription activation domain (domain or fragment, UniProt Q10366 507-851)
chain: B1 chain with R332A
On to B2, for which the binding result in assay [1] is listed as “no binding”.

B3: S. pombe Pik1 C-terminal region (residues 507-851) D709A fused to the GAL4 transcription activation domain (domain or fragment, UniProt Q10366 507-851)
chain: B1 chain with D203A
On to B3, for which the binding entry in assay [1] is recorded as “binds”.

B4: full length S. pombe Pik1, wild type (enzyme, UniProt Q10366 1-851)
chain: MPSSNSGNELLLRFFESAHFTSQLCVAYLSRYPNNIGIHHFLCEKLATFPYEEIEFFIPQLIHLVLNKDSESVALEEFIISQCEQNTQCALITFWYLQAHMVDLGLQPHSSCFKICKRLYNRIQILVFMSSSSLIQSQQKISENVTPALILSGIMLGGVCVPELLKKAGPIAIAQGRKAPRQDPDESDVDVLRRLSTEPRYSLDVLRSSLNNSIVEQHSEVSLRLKAPELTRTHSYQSSATLSIDEQRRVLRSNYFQQEIQFLFALQDISIRLIIVPRQARLSSLRAELALLNNNLPADVNIPLLRSYHKEVSHKIVRIDPKEATILNSAERVPYLIMVEVLSGELSFEPQSKKNKAKVQKIVSHKNQRKRWFDLTDVDPYTNLQDSTDNDISESESEGGDLSMSPLIKGLVPDTLSLSKSFSSFGNVSLQVPSSHRDTDVVLLSGRHSDSDGNGALKRSKIYASEITARMRAAATMLSQLDAEGSRRPKAETERIKNSIILDMQRLEEERLNEPSIYPVSVDISCAEDLRFGKETQKAERKGDRDDPSAATFQEDWYAKKERIRKSSPYGHYPNWDLVSVIVKTGADLRQETFACQLIYAFQRVWLECKEKVWVRRMKILVTGDNSGLIETITNAISVHSIKKNLTKQLREAELAQGKIAGKNVVTLKDYFIKQFGDPNSSRYRQAQTNFLQSLVAYSIISYLLQLKDRHNGNVLIDSEGHIIHIDFGFLLTNTPGNVGFESAPFKLTADYLEILDDRFDEYRSLMKAAFKSVRKNADQIILLVEVMQNNSTMPCFRAGENTSAQLLQRFQLQLGDKECDDFVDLLIQKANCSVWTRLYDLFQNITNGIY
With B4, the binding result in assay [2] was “binds”.

B5: full length S. pombe Pik1 R838A (enzyme, UniProt Q10366 1-851)
chain: B4 chain with R838A
B5: the binding result in assay [2] was “no binding (tested: lysate with 56 µg to 14 µg protein)”.

B6: full length S. pombe Pik1 D709A (enzyme, UniProt Q10366 1-851)
chain: B4 chain with D709A
Consider B6, for which the binding result in assay [2] is given as “binds”.

B7: full length S. pombe Pik1 D709A, R838A (enzyme, UniProt Q10366 1-851)
chain: B4 chain with D709A, R838A
With B7, the binding result in assay [2] was “no binding (tested: lysate with 56 µg to 14 µg protein)”.
